# Some of the results follow. The energies were worked out here from pooled read counts, against the library average; single values are noisy.
# Target: T1, Pho4 (S. cerevisiae) (UniProt P07270)
# T1 sequence: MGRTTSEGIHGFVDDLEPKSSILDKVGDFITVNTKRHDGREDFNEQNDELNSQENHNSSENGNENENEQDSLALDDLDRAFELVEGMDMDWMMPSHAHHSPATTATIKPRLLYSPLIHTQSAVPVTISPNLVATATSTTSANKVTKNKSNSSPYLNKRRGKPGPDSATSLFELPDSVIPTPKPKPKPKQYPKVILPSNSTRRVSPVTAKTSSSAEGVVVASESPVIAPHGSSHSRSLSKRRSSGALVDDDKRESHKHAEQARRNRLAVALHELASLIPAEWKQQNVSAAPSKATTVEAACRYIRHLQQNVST
# Assay: relative binding free energy (BET-seq); higher = weaker binding
# Settings: reference: library average
row,Sequence,relative binding free energy [kcal/mol]
1,AAATTCACGTGTAGGG,0.28
2,TATTACACGTGGCATG,-0.01
3,TCGTGCACGTGTTTTT,0.02
4,CTGGGCACGTGTTTGG,0
5,TTAAACACGTGTCGGT,-0.07
6,CGATTCACGTGTGCGG,0.26
7,AAGGTCACGTGGGGGA,-0.02
8,TTGTTCACGTGGAGCA,0.17
9,GTAGACACGTGGGTAA,-0.13
10,AATGGCACGTGTGTTA,0
11,GATTGCACGTGGGACG,0.07
12,ATGTACACGTGCGTGT,-0.11
13,GTTCGCACGTGGAATG,0.03
14,AAGTACACGTGGAGGG,0.16
15,GACTTCACGTGGTTTT,0.38
16,GGTGACACGTGTGGCT,0
17,TAGGGCACGTGAGTTC,0.02
18,AAGTTCACGTGGTTAT,0.31
19,TGGCCCACGTGAGGTG,0.06
20,ATAATCACGTGTTGTA,0.18
21,TAGCGCACGTGTGCTG,-0.07
22,TTTAGCACGTGTTAGA,0.04
23,TGTTCCACGTGGGGAG,-0.03
24,TACTTCACGTGGCGGT,0.17
25,TAGCGCACGTGAGGGA,0.06
26,GTAGGCACGTGTAGCA,0.12

row,Sequence,relative binding free energy [kcal/mol]
1,AGAAGCACGTGGTTAA,-0.13
2,CACGGCACGTGTTGGT,-0.08
3,CGCGTCACGTGTAAGG,0.38
4,GTAGGCACGTGTAGTA,-0.02
5,GTGTGCACGTGTGCAT,-0.02
6,AAAGTCACGTGTTGAT,0.2
7,AAGGTCACGTGTCTTT,0
8,TGTCGCACGTGGTTTT,-0.08
9,ATTCTCACGTGACGGG,0.25
10,AGGGCCACGTGAGTGG,0.1
11,TTGAGCACGTGCGATG,-0.11
12,CGTTTCACGTGGTTCA,0.28
13,TATTGCACGTGTTAAC,0.08
14,ATGTGCACGTGTTTTC,-0.04
15,GTAAGCACGTGCAGTT,0.11
16,CAAGGCACGTGTTTAT,-0.09
17,TATTGCACGTGTGACG,0.02
18,TGGTTCACGTGGTCAG,0.29
19,TGAGCCACGTGTTAGT,0.04
20,TATCTCACGTGATAGG,0.29
21,TGGTTCACGTGCGTAT,0.23
22,AATGACACGTGTGGGT,0.05
23,AGAGACACGTGGGGGA,-0.01
24,TGCTTCACGTGTGAGG,0.26
25,CATGGCACGTGGTGGA,-0.16
26,AATTACACGTGATGTT,0.22

row,Sequence,relative binding free energy [kcal/mol]
1,GTAAACACGTGTAATG,0.13
2,AGTTCCACGTGATTTG,0.16
3,CGCGGCACGTGTTTGT,-0.09
4,GGTTACACGTGATTCT,0.37
5,CAAGTCACGTGCGGGA,0.15
6,CGGCTCACGTGGGCTG,0.1
7,GTGGACACGTGGAGGG,0.09
8,AATGACACGTGCTTTG,0.04
9,TATGTCACGTGCGTGA,-0.16
10,AAGCGCACGTGTGTAT,-0.04
11,GTGATCACGTGGGTCG,0.05
12,TTTAACACGTGGTAGC,0.08
13,TAAGGCACGTGTGCGA,-0.18
14,TTTAGCACGTGGGGGT,-0.17
15,ATTCGCACGTGTAGGT,0.02
16,GGTAACACGTGTGCGG,0.03
17,GCGATCACGTGATGTG,0.32
18,TCTGTCACGTGTTCTT,0.06
19,TTGCTCACGTGCGATT,0.33
20,GTTTGCACGTGTGCTC,0.12
21,TACGGCACGTGTGCTG,-0.13
22,TTTGTCACGTGCTATG,0.11
23,TAGCACACGTGTGTAT,0.1
24,TGCATCACGTGGTGGG,0.08
25,TTGCGCACGTGGGTCA,-0.27
26,ATCAGCACGTGGTGAT,-0.06

row,Sequence,relative binding free energy [kcal/mol]
1,ACTTGCACGTGAAGTT,0.36
2,AGTGGCACGTGCTTTG,-0.22
3,TGAGTCACGTGTCTTG,-0.12
4,TATTGCACGTGGTCAT,-0.04
5,CGATGCACGTGGTCGT,-0.09
6,TTCAGCACGTGCTGGG,-0.05
7,TTTTACACGTGTTTCG,0.04
8,TGGCGCACGTGTTGGC,0
9,TGAATCACGTGGGGGA,0.12
10,GATAGCACGTGGTTCT,-0.06
11,TATTCCACGTGTGGTA,0.13
12,CGTTCCACGTGTGTGG,0.15
13,GTCTTCACGTGTGAGG,0.3
14,GTTTGCACGTGAAAGT,0.27
15,GAGGTCACGTGGCTAT,0.18
16,AGTTACACGTGTCGGT,0.07
17,CATGTCACGTGGTGGT,0.03
18,TTTAGCACGTGGGTCT,-0.21
19,AGCGGCACGTGTTGAT,0.01
20,TGGTACACGTGACATG,0.28
21,TTAGACACGTGATATT,0.13
22,GGGAGCACGTGAGGGA,0.14
23,TTAGACACGTGCATTT,0.08
24,TTTTTCACGTGTATAG,0.37
25,AACGGCACGTGGTATT,-0.06
26,ATGTCCACGTGTTTAT,0.07

row,Sequence,relative binding free energy [kcal/mol]
1,TTGGACACGTGCTAAG,0.04
2,GTTTACACGTGGCTAT,0.08
3,TGTTGCACGTGTGTTT,0.17
4,TAGGGCACGTGTGCGG,-0.08
5,TGTCTCACGTGGTTTG,0.16
6,TTAGACACGTGTGTAT,-0.1
7,GTGAGCACGTGTAGAT,0.16
8,AGTGACACGTGTGGAA,0.1
9,TAGTTCACGTGTTAAT,0.17
10,ACGTACACGTGTGTGT,-0.04
11,TGATTCACGTGATTAG,0.26
12,TGGAGCACGTGAGAGG,0.15
13,TTTCTCACGTGATTAG,0.29
14,TTCTGCACGTGGGCGA,-0.12
15,CATTTCACGTGTTTTA,0.09
16,GAGTACACGTGTCGTT,0.2
17,TTTCGCACGTGGTATA,-0.2
18,TTAATCACGTGGATCT,0.1
19,ATGTTCACGTGAGTGT,0.33
20,GAGAACACGTGGTAGT,0.06
21,TCGTGCACGTGTCATG,0.06
22,ATTGGCACGTGGATTA,-0.15
23,TTATTCACGTGTGATG,0.24
24,TTAGGCACGTGAGGCG,0.09
25,CGGCGCACGTGGGTAT,-0.3
26,GATTGCACGTGCTGGC,0.13

row,Sequence,relative binding free energy [kcal/mol]
1,CGTGACACGTGATTTG,0.22
2,AGCGGCACGTGTTCGG,-0.12
3,TCGGGCACGTGAAGCG,0.21
4,GTTGGCACGTGTTTCA,-0.04
5,CTTTTCACGTGTCGGG,0.31
6,AAATGCACGTGCATGT,0.1
7,TTACTCACGTGAGTTG,0.39
8,GTAATCACGTGGCGGT,0.19
9,GCTGACACGTGGGGCG,-0.03
10,TAGGGCACGTGAGGCT,0.23
11,GCTGGCACGTGCAAGG,0
12,GAGTGCACGTGTATCG,0.08
13,ATAGACACGTGGTAGT,-0.25
14,TAGTCCACGTGGGGGA,-0.04
15,GTATACACGTGTTGAT,0.08
16,TAGAGCACGTGTATGA,0.1
17,TACGTCACGTGGGAAG,0.17
18,TAGGCCACGTGGGTCT,-0.24
19,AGCATCACGTGGTTTT,0.16
20,AGTTTCACGTGAGTAT,0.43
21,TAATTCACGTGGTGGG,0.26
22,CGTTGCACGTGAGGCG,0.19
23,GATATCACGTGTCGTG,0.14
24,GGGACCACGTGAAGTG,0.27
25,GGAGGCACGTGTGTAC,-0.11
26,GTGCGCACGTGAGGTT,0.36

row,Sequence,relative binding free energy [kcal/mol]
1,AAGGTCACGTGACGTT,0.18
2,GGAAACACGTGGGGGA,-0.11
3,TCTGTCACGTGGATTG,0.07
4,AAATGCACGTGCTAGG,0
5,GGTTGCACGTGTAAGG,0.16
6,AACGTCACGTGGTTAG,0.02
7,TAGTCCACGTGGTTAT,-0.04
8,TAAATCACGTGCTTTG,0.27
9,TAGTGCACGTGTGCGT,-0.18
10,GATTGCACGTGGCTTG,-0.17
11,CTTGACACGTGTAGGC,0.25
12,TTGGACACGTGAGATG,0.16
13,GTGGGCACGTGTGAGA,0.03
14,GTGGACACGTGTGATA,0.04
15,GGAGGCACGTGTGTTA,-0.05
16,ATTGGCACGTGCGATT,-0.05
17,TGTATCACGTGCTGTA,0.02
18,TGTAGCACGTGTTTAG,0.07
19,AGATTCACGTGTGGCA,0.31
20,GGCCGCACGTGGGCGG,-0.12
21,TTAGTCACGTGATTGA,0.26
22,GGTTCCACGTGTGATT,0.17
23,AGTATCACGTGGGGCT,-0.05
24,GGAGTCACGTGGTAGA,0.15
25,GTATTCACGTGGGCTT,0.12
26,GTAGGCACGTGCTCGG,-0.11

row,Sequence,relative binding free energy [kcal/mol]
1,GTAGTCACGTGCTTAG,0.03
2,TTTTGCACGTGTGCTT,-0.04
3,AAGTGCACGTGTTTGC,0.02
4,GTTTTCACGTGTATCA,0.32
5,ATTGTCACGTGACTGT,0.17
6,ACGGGCACGTGTCTGT,-0.02
7,CATAGCACGTGTTGTT,-0.18
8,ATAGTCACGTGGTAAG,0.1
9,AATTGCACGTGGGCGG,-0.05
10,TGTGACACGTGGTGGG,0.03
11,CTTAGCACGTGTTGAG,-0.17
12,CATGGCACGTGTATGG,-0.07
13,GGGTTCACGTGTGCTG,0.27
14,ATCATCACGTGGGTTA,-0.05
15,AAGAACACGTGTGGTT,-0.03
16,GTAGGCACGTGAGGAT,0.19
17,AGGAGCACGTGGGAAA,-0.13
18,GTCGGCACGTGAGTGA,0.21
19,TTAAGCACGTGGTTAG,-0.14
20,TTGGTCACGTGAGTAG,0.26
21,ATTTCCACGTGTTAGG,0.14
22,TTTTGCACGTGTGAAC,0.17
23,TTGTTCACGTGAGATG,0.24
24,GGCTTCACGTGGGCTG,0.25
25,GGGGTCACGTGTGTGC,0.21
26,TGTGACACGTGAGATT,0.28

row,Sequence,relative binding free energy [kcal/mol]
1,TCATGCACGTGTTTAG,-0.07
2,TTAGTCACGTGTGTAC,0.16
3,GATTTCACGTGTGAGG,0.32
4,GTTGGCACGTGCGAAT,-0.09
5,CGGGGCACGTGAGGTG,0.18
6,CAGTGCACGTGGAGAG,-0.1
7,TTATGCACGTGAATAG,0.14
8,GTGAGCACGTGGTAGA,-0.09
9,TAGTGCACGTGATTAA,0.18
10,GATGTCACGTGTGTGA,0.12
11,TTTATCACGTGGTCAT,0.06
12,CTGTGCACGTGGTTTA,-0.07
13,AGTGACACGTGGGCGA,-0.11
14,TCTGTCACGTGTTTTT,0.04
15,GAGGCCACGTGTTGAG,0.07
16,GTGCGCACGTGGCGGC,-0.17
17,TTCGGCACGTGAATTT,0.19
18,TATGACACGTGATATT,0.2
19,AATGACACGTGGGTAT,-0.04
20,TAGGACACGTGGCGCG,-0.03
21,GAGTTCACGTGAGGGA,0.37
22,TATAGCACGTGGTGGC,-0.13

# Reference: the BET-seq Pho4 binding data (Le et al. 2018)
